Assay results taken from the antibiotic and cytotoxicity screens of Wong et al. (2023).
The other results are listed elsewhere or left out.

Key:
HSkMC = human skeletal muscle cells; experiment: cytotoxicity call (relative viability < 0.9); details: 10 µM
HepG2 = experiment: cytotoxicity call (relative viability < 0.9); details: 10 µM
S. aureus RN4220 = experiment: growth inhibition call (relative growth <= 0.2); details: 50 µM

C[C@H]1CCCCO[C@H](CN(C)C(=O)Nc2ccccc2)[C@@H](C)CN([C@@H](C)CO)C(=O)c2cc(NS(=O)(=O)c3ccc(F)cc3)ccc2O1
inactive: cytotoxicity call (HSkMC) | cytotoxicity call (HepG2) | growth inhibition call (S. aureus RN4220)

COc1ccc(Cc2c(O)[nH]c(N)nc2=O)cc1
inactive: cytotoxicity call (HSkMC) | cytotoxicity call (HepG2) | growth inhibition call (S. aureus RN4220)

Cc1ccc(S(=O)(=O)Nc2ccc3c(c2)C(=O)N([C@H](C)CO)C[C@H](C)[C@@H](CN(C)CC2CC2)O3)cc1
inactive: cytotoxicity call (HSkMC) | cytotoxicity call (HepG2) | growth inhibition call (S. aureus RN4220)

Cc1noc(C)c1NC(=O)Nc1ccc2c(c1)C(=O)N([C@H](C)CO)C[C@H](C)[C@H](CN(C)C(=O)NC(C)C)O2
inactive: cytotoxicity call (HSkMC) | cytotoxicity call (HepG2) | growth inhibition call (S. aureus RN4220)

C[C@@H]1CCCCO[C@H](CN(C)C(=O)c2ccncc2)[C@@H](C)CN([C@H](C)CO)C(=O)c2cc(NC(=O)CCCCCC(=O)Nc3ccccc3N)ccc2O1
inactive: cytotoxicity call (HSkMC) | cytotoxicity call (HepG2) | growth inhibition call (S. aureus RN4220)

C[C@@H]1CN([C@H](C)CO)C(=O)c2cccc(NC(=O)Nc3cccc4ccccc34)c2O[C@H]1CN(C)C(=O)NC1CCCCC1
inactive: cytotoxicity call (HSkMC) | cytotoxicity call (HepG2) | growth inhibition call (S. aureus RN4220)

COc1ccc(S(=O)(=O)Nc2cccc3c2O[C@H](CN(C)C(=O)NC(C)C)[C@H](C)CN([C@H](C)CO)C3=O)cc1
inactive: cytotoxicity call (HSkMC) | cytotoxicity call (HepG2) | growth inhibition call (S. aureus RN4220)
